Results as given in the RNAGym collection of RNA variant scans (doi:10.1073/pnas.2313332121).
Variants at the background level are over-represented here.

B1: TPR 5TU (parent)
chain: GGAUCUUCUCGAUCUAACAAAAAAGACAAAUCUGCCACAAAGCUUGAGAGCAUCUUCGGAUGCAGAGGCGGCAGCCUUCGGUGGCGCGAUAGCGCCAACGUUCUCAACUAUGACACGCAAAACGCGUGCUCCGUUGAAUGGAGUUUAUCAUG

Variants of: B1
Assay: polymerase ribozyme fitness, log enrichment relative to wild type (log ratio); higher = more active; in vitro selection for triplet polymerase activity
In short: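 PCR was used to build mutant libraries for each subunit of a heterodimeric triplet polymerase ribozyme, which were then transcribed. A single in vitro selection round, in triplicate, used a frozen incubation at −7 °C and recovered extended constructs by gel excision, streptavidin beads and RT-PCR. Fitness is the logarithm of genotype enrichment relative to wild-type enrichment, averaged over replicates with inverse-variance weights. The logarithm is base 2, and after Illumina sequencing only genotypes with ≥10 input reads and ≥1 read per output were kept.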

Q: With GGAUCUUCUCGAUCUAACAGAAAAGACAAAUCUGCCACAAAGCUUAAGAGCAUCUUCGGAUGCAGAGGCGGCAGCCUUCGGUUGCGCGAUACCGCCAACGUUCUCUACUAUGACACGCAAAACGCGUGCUCCGUUGAAUGGAGUUUAUCAUG [A20G G46A G83U G92C A106U] as the variant, how does the “polymerase ribozyme fitness (log ratio)” value read?
A: Its value is at most -4.2.

Q: For GGAUCUUCUCGAUCUAACAGAAAAGACAAAUCUGCCACAAAGCUUGAGAGCAUCUUCAGAUGCAGAGGUGACAGCCUUCGGUGGCGCGAUAGCGCCAACGUUCUCAACUGUGACACGCAAAACGCGUGAUCCGUAGAAUGGAGUUUACCAUG [A20G G58A C69U G71A A110G C129A U135A U148C], which “polymerase ribozyme fitness (log ratio)” value is on record?
A: Its value is at most -4.2.

Q: Which “polymerase ribozyme fitness (log ratio)” value does the source give for GGAUCUUCUCGAUCUAACAGAAAAGACAAAUCUGCCACAAAGCUUGAGAGCAUCUUCGAAUGCAGAGGCGGCAGCCUUCGGUGGCGCGAUAGCGCCAACGUUCUCAACUAUGACACGCAAAACGCGUGCUCCGUUGAAUGGAGUUUAUCAUG [A20G G59A] here?
A: Its value is -0.551.

Q: With GGAUCUUCUCGAUCUAACAGAAAAGACAAAUCUGCCACAAAGCUUGAGAGCAUCUUCGCAUGCAGAGGCAGCAGCCUUCGGUGGCGCGAUAGCGCCAACGUUCUCAACUAUGACACGCAAAACGCGUGCUCCGUUGAAUGGAGUUUAUCAUG [A20G G59C G70A] as the variant, how does the “polymerase ribozyme fitness (log ratio)” value read?
A: Its value is -4.05.

Q: Which “polymerase ribozyme fitness (log ratio)” value does the source give for GGAUCUUCUCGAUCUAACAGAAAAGACAAAUCUGCCACAAAGCUUGAGAGCAUCUUCGGAUGCAGAGACGGCAGCCUUCGGUGGCGCGAUAGCCCCAACGUUCUCAACUAUGACACGCAAAACGCGUGCUCCGUUGAAUGGAGUUUAUCAUG [A20G G68A G94C] here?
A: The value was at most -4.2.

Q: With GGAUCUUCUCGAUCUAACAGAAAAGACAAAUCUGCCACAAAGCUUGAGAGCAUCUUCGGAUGCAGAGGCCGCAGUCUUCGGUGGCGCGAUAGAGUCAACGUUCUCAACCAUGACACGCAAAACGCGUGCUCCGUUGAAUGGAGUUUAUCAUG [A20G G70C C75U C93A C95U U109C] as the variant, how does the “polymerase ribozyme fitness (log ratio)” value read?
A: The value was at most -4.2.

Q: With GGAUCUUCUCGAUCUAACAGAAAAGACAAAUCUGCCACAAAGCUUGAGAGCAUCUUCGGAUGCAGAGGCGGCAGCCUUCGGUAGCGCCAUAGGGCCAACAUUCUCAACUAUGACACGCAAAACGCGUGCUCCGUUGAAUGGAGUUUAUUAUG [A20G G83A G88C C93G G100A C149U] as the variant, how does the “polymerase ribozyme fitness (log ratio)” value read?
A: Its value is at most -4.2.

Q: For GGAUCUUCUCGAUCUAACAGAAAAGACAAAUCUGCCACAAAGCUUGAGAGCAUCUUCGGAUGCAGAGGCGGCAGCCUUCGGUGGCGCAAUAGCGCCAACGUUGUCAACUAUGACACGAAAAACGCGUGCUCCGUUGAAUGCAGUUUCUCAUG [A20G G88A C103G C118A G141C A147C], which “polymerase ribozyme fitness (log ratio)” value is on record?
A: The value was at most -4.2.

Q: Which “polymerase ribozyme fitness (log ratio)” value does the source give for GGAUCUUCUCGAUCUAACAGAAAAGACAAAGCUGCCACAAAGCUUGAGAGCAUUUUCGGAUGCAGAGGCGCCAGCCUUCGGUGGCGCGAUAGCGCCAACGUUCUCAACUAUGACACGCAAAAGGCGUGCUCCGUUGAAUGGAGAUUAUCAUG [A20G U31G C54U G71C C123G U144A] here?
A: The value was at most -4.2.

Q: Which “polymerase ribozyme fitness (log ratio)” value does the source give for GGAUCUUCUCGAUCUAACAGAAAAGACAAAUCUGCCACAAAGCUAGAGAGCAUCUUAGGAUGCAGAGGCGGCAGCCUACCGUGGGGCGAUAGCGCCAACGUUCUCAACUAUGACGCGCAAAACGCGUGCUCCGUUGAAUGGAGUUUAUCAUG [A20G U45A C57A U78A G80C C85G A115G] here?
A: Its value is at most -4.2.

Q: With GGAUCUUCUCGAUCUAACAGAAAAGACAAAUCUGCCACAAAGCUUGAGAGCAACUUCGGAUGCAGAGGCGGCAGCCUGCGGUGGCGCGAUAGCGCCGUCGUUCUCAACUAUGACACGAAAAACGCGUGCUCCGUUGAAUGGAGCUUAUCCUG [A20G U53A U78G A97G A98U C118A U144C A150C] as the variant, how does the “polymerase ribozyme fitness (log ratio)” value read?
A: Its value is at most -4.2.

Q: With GGAUCUUCUCGAUCUAACAGAAAAGACAAAUCUGCCACAAAGCUUGAGAGCAUCUUCGGAUGCAGAGGCGGCAGCCUCCGGUGGCGCUAUAGCGCCAACGUUCUUAACUAUGACACGCAAAACGCGUGCUCCGUUGAAUGGAGUUUAUCAUG [A20G U78C G88U C105U] as the variant, how does the “polymerase ribozyme fitness (log ratio)” value read?
A: Its value is at most -4.2.

Q: Which “polymerase ribozyme fitness (log ratio)” value does the source give for GGAUCUUCUCGAUCUAACAUCAAAGACAAAUCUACCACAAAGUUUGAGAGCAUCUUCGGAUGCAGAGGCGGCAGCCUUAGGUGGCGCGAUAGCGCCAACGUUCUCAACUAUGACACGCAAAACGCGUGCUCCGUUGAAUGGAGUUUACCAUG [A20U A21C G34A C43U C79A U148C] here?
A: Its value is at most -4.2.

Q: For GGAUCUUCUCGAUCUAACAUUAAAGACAAAUCUGCCACAAAGCUUGAGAGCAUCUUCGGAUGCAGAGGCGGCAGCCUUCGGUGGCGCGAUAGCGCCAACGUUCUCAACUAUGACACGCAAAACGCGUGCUCCGUUGAAUGGAGUUUAUCAUG [A20U A21U], which “polymerase ribozyme fitness (log ratio)” value is on record?
A: Its value is -0.727.

Q: With GGAUCUUCUCGAUCUAACAUUAAAGACAAAUCUGCCACAAAGCUUGAAAGCAUCUACGGAUGAAGAGGCGGCAGCCUUCGGUGGCGCGAUAGCCCCAACGUUCUCAACUAGGACACGCAAAACGCGUACUCCGUUGAAUGGAGUUUACCAUG [A20U A21U G48A U56A C63A G94C U111G G128A U148C] as the variant, how does the “polymerase ribozyme fitness (log ratio)” value read?
A: The value was at most -4.2.

Q: Which “polymerase ribozyme fitness (log ratio)” value does the source give for GGAUCUUCUCGAUCUAACAUUAAAGACAAACCUGCCACAAAGCAUGAGAGCCUCAUUGGAUGCAGAGGCGGCAGCCUUCGGUGGCAAGAUAGCGCAAACGUUCUCAACUAUGACACGCAAAAAGCGUGCUCCGUUGAAUGCAGUUUAUCAUG [A20U A21U U31C U44A A52C U55A C57U G86A C87A C96A C123A G141C] here?
A: Its value is at most -4.2.

Q: For GGAUCUUCUCGAUCUAACAUACAAGACAAAUCUGCCACAACGCUUGAGAGCAUUUUCGGAUGCAGAGGCGGCAGCCUUCGGUGGUGCAAUAGCGCCAAUGUUCUCAACUAUGAUACGCAAAACGCGUGCUCCGUUGAAUGGAGUUUAUCAUG [A20U A22C A41C C54U C85U G88A C99U C114U], which “polymerase ribozyme fitness (log ratio)” value is on record?
A: Its value is at most -4.2.

Q: Which “polymerase ribozyme fitness (log ratio)” value does the source give for GGAUCUUCUCGAUCUAACAUACAAGACAAAUCUGCAACAAAGCUAGAGAGCAUCUUCGGAUGCAGAGGCGGCAGACUUCGGUGGCGCGAUAGGGCCAACGUUCUCAACUAUGACACGCAAAACGCGUGCUCCGUUGAAUGGAGUUUAACAUG [A20U A22C C36A U45A C75A C93G U148A] here?
A: Its value is at most -4.2.

Q: For GGAUCUUCUCGAUCUAACAUACAAGACAAAUCUGCCACAAAGCUUGAGAGCAUCUUCGGAUGCAGAGGCGGCAGCCUUCGGUGGGACGAUAGCGCCGACAUUCUCAACUAUGACACGCAAAACCCGUGCUCCGUUGAAUGGAGUUUAUCAUG [A20U A22C C85G G86A A97G G100A G124C], which “polymerase ribozyme fitness (log ratio)” value is on record?
A: The value was at most -4.2.
